The values that follow come from PMC4336329 (PLoS ONE, 2015).

Out of some 310,000 compounds screened, about 2,200 (0.71%) showed an effect of 50% or more. The effect is printed as a negative number. Some of the results follow.

This assay deals with human ether-à-go-go-related gene (hERG) potassium channel (human, UniProt Q12809). Kind of assay: primary screen, population patch clamp on CHO cells stably expressing hERG.
Sequence of human ether-à-go-go-related gene (hERG) potassium channel (Q12809 whole entry, looked up): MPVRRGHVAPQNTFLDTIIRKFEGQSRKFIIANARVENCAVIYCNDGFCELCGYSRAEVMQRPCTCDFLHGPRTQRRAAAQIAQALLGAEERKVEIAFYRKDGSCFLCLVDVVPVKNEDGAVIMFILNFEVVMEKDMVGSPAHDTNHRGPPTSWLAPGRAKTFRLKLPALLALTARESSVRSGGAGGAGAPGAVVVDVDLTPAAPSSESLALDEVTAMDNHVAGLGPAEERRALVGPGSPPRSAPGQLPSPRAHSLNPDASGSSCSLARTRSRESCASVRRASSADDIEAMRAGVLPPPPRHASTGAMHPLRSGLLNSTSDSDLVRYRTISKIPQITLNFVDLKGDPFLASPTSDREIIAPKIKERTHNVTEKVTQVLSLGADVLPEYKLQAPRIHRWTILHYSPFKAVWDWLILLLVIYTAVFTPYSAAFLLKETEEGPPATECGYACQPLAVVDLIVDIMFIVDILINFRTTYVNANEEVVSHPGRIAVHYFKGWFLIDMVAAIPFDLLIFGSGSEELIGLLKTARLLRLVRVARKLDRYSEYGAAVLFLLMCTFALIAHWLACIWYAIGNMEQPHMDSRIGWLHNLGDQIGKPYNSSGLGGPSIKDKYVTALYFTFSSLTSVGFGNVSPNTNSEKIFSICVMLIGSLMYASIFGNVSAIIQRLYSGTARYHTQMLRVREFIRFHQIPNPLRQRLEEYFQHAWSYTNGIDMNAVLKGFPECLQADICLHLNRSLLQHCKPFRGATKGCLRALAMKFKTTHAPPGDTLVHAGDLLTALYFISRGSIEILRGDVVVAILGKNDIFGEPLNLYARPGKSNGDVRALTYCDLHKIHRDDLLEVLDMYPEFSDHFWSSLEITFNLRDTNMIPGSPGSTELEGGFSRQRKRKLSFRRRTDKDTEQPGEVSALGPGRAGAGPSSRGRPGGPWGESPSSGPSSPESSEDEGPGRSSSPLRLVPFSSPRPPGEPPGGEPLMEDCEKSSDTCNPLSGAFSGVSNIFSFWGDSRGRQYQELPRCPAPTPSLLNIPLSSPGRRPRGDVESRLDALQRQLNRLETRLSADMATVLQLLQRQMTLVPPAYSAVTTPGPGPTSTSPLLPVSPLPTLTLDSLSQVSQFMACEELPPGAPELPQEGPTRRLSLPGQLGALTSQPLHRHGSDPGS
Turning to `Cc1c(NC(=O)c2csc3c2CCCC3)c(=O)n(-c2ccccc2)n1C`, the “hERG current change (%, negative = inhibition) at 1uM” value is recorded as 18%.
For `COP(=O)(/C=C/c1ccccc1)C(O)c1ccc(F)cc1` (stereo not shown) the value was 9.55%; for `C=CCn1c(CNC(=O)c2ccccc2C)nnc1SCC(=O)NC1CCCC1`, 12.1%; for `CCOC(=O)CCc1c(C)c2ccc3c(c2oc1=O)CN(CCCO)CO3`, 16.7%.
`CCOC(=O)CCP(=O)(O)C(O)c1ccc(OC)cc1` (stereo not shown): the “hERG current change (%, negative = inhibition) at 1uM” value was determined as 6.31%.
Under `CCOC(=O)N1CCN(S(=O)(=O)c2ccc(C)cc2)CC1` stands 16.1%.
For `O=C(O)c1ccccc1C(=O)NC1CCN(c2nccc(C(F)(F)F)n2)CC1` the value was 14.3%; for `CCOC(=O)N1CCN(C(=O)Cn2ccc3c(OC)cccc3c2=O)CC1`, 8.79%; for `c1ccc(CSc2nnc(NC3=NCCCCC3)s2)cc1`, 2.53%.
For `Cc1ccc(C(=O)O)cc1N1C(=O)c2cccc3c([N+](=O)[O-])ccc(c23)C1=O`, the “hERG current change (%, negative = inhibition) at 1uM” value amounted to 15.9%.
For `CN(C1CCS(=O)(=O)C1)S(=O)(=O)c1cccc2nsnc12` (stereo not shown), the “hERG current change (%, negative = inhibition) at 1uM” value is -7.83%.
Under `CCOC(=O)c1cc2c(ccn2C)n1CC(=O)N(CC)CC` stands 13.9%; under `Cl.N#C/C(=C\c1ccccc1)C(=O)NCCN1CCOCC1`, 15.3%; under `CCn1nnc(-c2ccc(N)cc2)n1`, 13%.
Regarding `CCOc1cccc(-c2nnc3sc(COc4ccc(Cl)cc4)nn23)c1`, the “hERG current change (%, negative = inhibition) at 1uM” value is 9.26%.
Regarding `COc1cc(C(=O)NC(C)c2ccc(S(N)(=O)=O)cc2)ccc1OCC(=O)N1CCOCC1` (stereo not shown), the “hERG current change (%, negative = inhibition) at 1uM” value is 13%.
Regarding `CS(=O)(=O)N(CC(=O)NCc1ccccc1Cl)C1CCCCC1`, the “hERG current change (%, negative = inhibition) at 1uM” value turned out to be 10.4%.
Under `CC(C)n1c(N2CCN(S(=O)(=O)c3cccc([N+](=O)[O-])c3)CC2)nc2ccccc21` stands -21.3%; under `O=C(O)/C=C/C(=O)Nc1ccc(Oc2ccc(NC(=O)/C=C/C(=O)O)cc2)cc1`, 13.4%.
Regarding `COCCN(C(=O)CSc1nc2nc(C)cc(C)n2n1)c1c(N)n(Cc2ccccc2)c(=O)[nH]c1=O`, the “hERG current change (%, negative = inhibition) at 1uM” value is recorded as 20.9%.
As to `CC(C)OP(=O)(OC(C)C)C(Nc1ccc(C(=O)O)cc1)c1ccccc1` (stereo not shown), the “hERG current change (%, negative = inhibition) at 1uM” value was 10.6%.
With `O=C1C(Cc2c[nH]c3ccccc23)NC(=S)N1C1CCCCC1` (stereo not shown), the “hERG current change (%, negative = inhibition) at 1uM” value was 10.7%.
As for `COc1ccc(C(=O)C[n+]2ccc3c(c2)nc(-c2ccc(OC)cc2OC)n3C)cc1.[Br-]`, the “hERG current change (%, negative = inhibition) at 1uM” value is recorded as 4.76%.
As to `CCOC(=O)C1CCN(S(=O)(=O)c2c(C)[nH]c(=O)[nH]c2=O)CC1`, the “hERG current change (%, negative = inhibition) at 1uM” value stood at 1.35%.
In the case of `COc1cc(C(C)=O)ccc1COc1ccc(C(=O)O)cc1OC`, the “hERG current change (%, negative = inhibition) at 1uM” value is 3.24%.
For the compound `COc1ccc(NC(=O)c2ccc(Br)c(S(=O)(=O)N3CCOCC3)c2)cc1`, the “hERG current change (%, negative = inhibition) at 1uM” value is 10.6%.
Turning to `COCCN(C(=O)COC(=O)CCCOc1ccccc1)c1c(N)n(Cc2ccccc2)c(=O)[nH]c1=O`, the “hERG current change (%, negative = inhibition) at 1uM” value came out at 7.67%.
As for `CCCCCn1c(=S)[nH]c2cc(C(=O)N3CCCC3)ccc2c1=O`, the “hERG current change (%, negative = inhibition) at 1uM” value is 6.03%.
Regarding `Cc1cccc2cc(CN(C(=O)c3cccs3)c3ccccc3)c(=O)[nH]c12`, the “hERG current change (%, negative = inhibition) at 1uM” value was determined as 14.5%.
In the case of `O=C(NCc1ccc2c(c1)OCO2)Oc1ccccc1`, the “hERG current change (%, negative = inhibition) at 1uM” value is listed as -0.322%.
For `COc1ccc(Cl)cc1C(=O)NNC1CC(=O)N(Cc2ccc(Cl)cc2)C1=O` (stereo not shown) the value was -5.98%; for `O=C(COC(=O)CCC1CCCC1)Nc1ccc(Cl)cn1`, 13.6%.
With `OCCC1CN(Cc2cc3c(cc2Cl)OCO3)CCN1Cc1ccccc1` (stereo not shown), the “hERG current change (%, negative = inhibition) at 1uM” value is -1.48%.
For `COc1ccc(-c2csc(NC(=O)CSCC(=O)Nc3cc(C)on3)n2)cc1`, the “hERG current change (%, negative = inhibition) at 1uM” value amounted to 10.1%.
Take `O=C(OC(C(=O)Nc1cc(Cl)cc(Cl)c1)c1ccccc1)C1=COCCO1` (stereo not shown): the “hERG current change (%, negative = inhibition) at 1uM” value was determined as 10.2%.
On to `CN(C)c1ccc(/C=C2\N=C(C(C)(C)C)OC2=O)cc1`, for which the “hERG current change (%, negative = inhibition) at 1uM” value came out at 18.7%.
On to `O=C(CCCNC(=O)/C(=C/c1ccc(F)cc1)NC(=O)c1ccccc1)OCc1ccccc1`, for which the “hERG current change (%, negative = inhibition) at 1uM” value is -38.3%.
`O=C1/C(=C/c2cccs2)CCC/C1=C\c1cccs1.O=S(=O)(O)O`: the “hERG current change (%, negative = inhibition) at 1uM” value was 10.2%.
For `O=C(NC(=S)NCc1ccccc1)c1cccc([N+](=O)[O-])c1` the value was -6.34%; for `O=C(N/N=C/c1cccs1)c1cc(C2CC2)nc2ccccc12`, 6.16%.
For `O=C(NC1CCCCCC1)c1ccc(CS(=O)Cc2ccccc2Cl)o1` (stereo not shown), the “hERG current change (%, negative = inhibition) at 1uM” value turned out to be 11.9%.
Turning to `CC(C)n1nc(C(=O)Nc2cccc(S(=O)(=O)N3CCCCC3)c2)c2ccccc2c1=O`, the “hERG current change (%, negative = inhibition) at 1uM” value stood at 7.59%.
For `CCOc1ccc(N=C2NC(=O)C(CC(=O)Nc3ccccc3)S2)cc1` (stereo not shown) the value was 8.01%.
For `CCOC(=O)CSc1nc2cc(C(=O)OC)ccc2c(=O)n1CCN1CCOCC1` the value was -11.4%.
Turning to `COc1cccc(NC(=O)C(=O)NCCCn2ccnc2)c1`, the “hERG current change (%, negative = inhibition) at 1uM” value is on record as 10.3%.
For `COc1ccc(NC(=O)c2ccccc2NC(=O)c2ccccc2)cc1` the value was 13.7%; for `COC(=O)Cn1c(CN2CCC(Cc3ccccc3)CC2)nc2c1c(=O)n(C)c(=O)n2C`, 6.77%.
Under `CCN(CC)C(=O)C1CCCN(c2ccccc2[N+](=O)[O-])C1` (stereo not shown) stands -0.0822%; under `C=CCN(c1ccccc1)S(=O)(=O)c1cccc(C(=O)O)c1`, 12.2%; under `CC(C)C(=O)Nc1ccc([N+](=O)[O-])c(C(F)(F)F)c1`, 1.83%.
For `Cc1csc(SCC(=O)O)n1` the value was 9.44%; for `CC(C)CN(C(=O)COC(=O)c1ccccc1Sc1ccccc1C#N)C1CCS(=O)(=O)C1` (stereo not shown), 18.1%.
Take `COc1ccc(N2CCN(C(=O)c3ccc(-c4nc5ccccc5s4)o3)CC2)cc1`: the “hERG current change (%, negative = inhibition) at 1uM” value is -0.0373%.
Regarding `COc1ccc2[nH]cc(CCN)c2c1`, the “hERG current change (%, negative = inhibition) at 1uM” value amounted to 15.1%.
In the case of `O=C(c1ccccc1)N1CCN(C2C3CC4CC(C3)CC2C4)CC1` (stereo not shown), the “hERG current change (%, negative = inhibition) at 1uM” value amounted to 6.35%.
As for `Cn1c(N)c(C(=O)COC(=O)CCc2nc3ccccc3s2)c(=O)n(C)c1=O`, the “hERG current change (%, negative = inhibition) at 1uM” value amounted to 19.5%.
For `Cc1c(C(=O)Nc2ccccc2F)sc2ncn(CC(=O)N3CCCCC3)c(=O)c12` the value was 25.2%; for `C=CCN(CC(O)c1cccc([N+](=O)[O-])c1)C(C)CCc1ccccc1.Cl` (stereo not shown), -9.83%.
On to `N#Cc1cc2c(nc1SC1CCCCC1O)CCCC2` (stereo not shown), for which the “hERG current change (%, negative = inhibition) at 1uM” value is recorded as 1.44%.
On to `CCc1n[nH]c(=S)n1/N=C/c1ccc(NC(C)=O)cc1`, for which the “hERG current change (%, negative = inhibition) at 1uM” value stood at 7.25%.
Turning to `O=C1CNC(=S)N1Cc1ccccc1Cl`, the “hERG current change (%, negative = inhibition) at 1uM” value was 1.25%.
Turning to `CS(=O)(=O)N(CC(=O)N1CCN(Cc2ccc3c(c2)OCO3)CC1)Cc1ccc(Cl)cc1`, the “hERG current change (%, negative = inhibition) at 1uM” value is listed as -4.49%.
As to `Cn1c(=O)c([N+](=O)[O-])c(NCc2ccc3c(c2)OCO3)c2ccccc21`, the “hERG current change (%, negative = inhibition) at 1uM” value turned out to be 4.69%.
Regarding `Cc1c(C(=O)NNC(=O)c2ccncc2)oc2ccc(Br)cc12`, the “hERG current change (%, negative = inhibition) at 1uM” value is recorded as -31%.
In the case of `Nc1ncnc(Nc2cccc(Cl)c2Cl)n1`, the “hERG current change (%, negative = inhibition) at 1uM” value was 12.2%.
On to `COc1ccnc2c1c(=O)n(Cc1ccccc1Cl)c(=O)n2C`, for which the “hERG current change (%, negative = inhibition) at 1uM” value was found to be 12.8%.
In the case of `CCOC(=O)C1=C(C)NC(=O)NC1c1ccc(F)cc1` (stereo not shown), the “hERG current change (%, negative = inhibition) at 1uM” value worked out at 13.3%.
Turning to `COc1cccc(NC(=O)c2ccccc2-c2ccccc2C(=O)O)c1`, the “hERG current change (%, negative = inhibition) at 1uM” value is recorded as 15%.
Take `Cc1cnc(NC(=O)c2ccc(-c3ccc([N+](=O)[O-])cc3)o2)s1`: the “hERG current change (%, negative = inhibition) at 1uM” value was found to be 16.4%.
Consider `O=C1NC(=O)C(CC(=O)N(Cc2ccco2)C2(C(=O)NC3CCCC3)CCCCC2)N1` (stereo not shown), for which the “hERG current change (%, negative = inhibition) at 1uM” value was found to be 13.8%.
Regarding `CCCCC(=O)NC(c1ccc([N+](=O)[O-])cc1)c1c(O)ccc2ccccc12` (stereo not shown), the “hERG current change (%, negative = inhibition) at 1uM” value turned out to be 4.2%.
For `COC(=O)COc1ccc(-c2nccc(-c3ccccn3)n2)cc1` the value was 9.24%; for `CCNC(=O)CC1SC(=Nc2ccc(C)c([N+](=O)[O-])c2)N(C)C1=O` (stereo not shown), 7.26%; for `Cc1nnc(SCc2ccc(F)cc2Cl)s1`, -1.78%.
Turning to `Cl.N=c1ccn2c(n1)O[C@H]1[C@@H](CO)[C@H](O)O[C@H]12`, the “hERG current change (%, negative = inhibition) at 1uM” value is 10.1%.
Turning to `Cc1ccccc1NC(=O)C(NS(=O)(=O)c1ccc2c(c1)c(=O)n(C)c(=O)n2C)c1ccccc1` (stereo not shown), the “hERG current change (%, negative = inhibition) at 1uM” value amounted to 11.4%.
Consider `O=C(Cn1cccc1C(=O)c1ccccc1)NCCN1CCCCCC1`, for which the “hERG current change (%, negative = inhibition) at 1uM” value was -8.68%.
For `O=C(COc1ccccc1F)N/N=C1\CCCc2ccccc21` the value was 15%.
As to `Cc1ccc(C(=O)N2CCN(S(=O)(=O)N3CCCCC3)CC2)cc1`, the “hERG current change (%, negative = inhibition) at 1uM” value was 11.8%.
For `O=C(c1ccncc1)c1ccc(NS(=O)(=O)c2ccc(Br)s2)cc1` the value was 1.6%.
In the case of `Cc1ccc(S(=O)(=O)N2CCN(c3nc(CN4CCCC4)nc4sc(C)c(C)c34)CC2)cc1`, the “hERG current change (%, negative = inhibition) at 1uM” value is reported as -48.8%.
In the case of `O=C(O)c1ccccc1NCc1cccs1`, the “hERG current change (%, negative = inhibition) at 1uM” value was 12.4%.
With `CCCCc1nnc(NC(=O)c2ccc3c(=O)n4c(nc3c2)CCC4)s1`, the “hERG current change (%, negative = inhibition) at 1uM” value came out at 9.85%.
For the compound `Cn1cccc1C(=O)NC(=O)COC(=O)CC12CC3CC(CC(Br)(C3)C1)C2`, the “hERG current change (%, negative = inhibition) at 1uM” value was found to be 7.61%.
Consider `Cn1c(=O)c2c(nc(CN3CCC(C(N)=O)CC3)n2Cc2c(Cl)cccc2Cl)n(C)c1=O`, for which the “hERG current change (%, negative = inhibition) at 1uM” value is given as -1.28%.
As to `Cl.O=C(NCCN1CCCCC1)c1c(O)c2ccccc2[nH]c1=O`, the “hERG current change (%, negative = inhibition) at 1uM” value is on record as 2.99%.
Turning to `CC(C)C(c1nnnn1CCc1ccccc1)N1CCOCC1` (stereo not shown), the “hERG current change (%, negative = inhibition) at 1uM” value is recorded as 5.85%.
For `Cc1ccc(C)c(NC(=O)CSc2nnc(CCCCCNC(=O)OC(C)(C)C)o2)c1`, the “hERG current change (%, negative = inhibition) at 1uM” value is recorded as -14.6%.
